Data taken from PubChem BioAssay AID686970 (National Center for Advancing Translational Sciences (NCATS), 2013).
Values joined by “and” are separate entries in the source; they are usually repeats but may differ in a detail not shown here. Equal values may be shown once. The whole screen tested about 360,000 compounds, of which about 6,000 (1.7%) were called active. Inconclusive results, whose numbers are uncertain, are shown with a selection of clear calls. The call rests on the fitted dose curve; in most records, active means well fitted cell-killing curve with a large enough effect; inconclusive means small, poorly fitted or top-dose-only effect, or effect the other way; inactive means flat fitted curve, though single readings scatter. Potencies beside an inconclusive call are fits to weak or partial responses and may not hold up.
Potency means the concentration at half of the fitted maximal effect; tags describe the fitted curve by direction and shape.

Test: qHTS for induction of synthetic lethality in tumor cells producing 2HG: qHTS for the HT-1080-NT fibrosarcoma cell line;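 further: NT is the 2HG producing partner of a matched IDH1 knockdown line; nearly all actives have a fitted effect of over 55% in size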;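 on activity, negative = less viability: 0% = DMSO-treated cells and -100% = media-only wells without cells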
Details: HT-1080-NT fibrosarcoma viability, CellTiter-Glo ATP luminescence, 48 h; activity, negative = less viability: at 46.1 µM (top of the series) unless noted
Outline: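 750 cells/well, RPMI + 5% FBS; 2 h settle, compound pin-transfer, 48 h at 37 degrees C. CellTiter-Glo 10 min RT, luminescence. Normalized to DMSO and media-only wells.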
For `CCn1ccnc1CN1CCCCC1C(=O)Nc1ccc(Oc2cccnc2)cc1` (configuration not stated), the Potency was inconclusive: 23.1 µM [cytotoxic, single point]. In the case of `Fc1cc(F)c2nc(Nc3nc4cc5c(cc4s3)OCO5)sc2c1`, the Potency is reported as inconclusive: 25.9 µM [cytotoxic, single point]. In the case of `C=C1C(=O)OC2C1CCC(C)=CCCC1(C)OC21` (configuration not stated), the Potency is reported as active: 16.4 µM. For `O=C(Oc1c(Cl)cc(Cl)c2cccnc12)c1cccc([N+](=O)[O-])c1`, the Potency was inconclusive: 18.4 µM [cytotoxic, partial curve]. For `CCOc1cccc(/C=N/NC(=O)c2ccc3c(c2)OCCO3)c1O`, the Potency was inconclusive: 9.2 µM [cytotoxic, single point]. In the case of `N=C1C(c2nc(-c3ccc(Cl)cc3)cs2)=C(O)CN1CCCN1CCOCC1`, the Potency is reported as active: 23.1 µM. In the case of `CN1C(=S)N(c2cccnc2)C(=O)/C1=C\c1ccc(N(C)C)cc1`, the Potency is reported as inconclusive: 20.6 µM [cytotoxic, single point]. In the case of `Cc1occc1C(=O)N/N=C/c1ccc(N(C)C)cc1`, the Potency is reported as inconclusive: 29.1 µM [cytotoxic, single point]. In the case of `COc1cc(OC)c(C(=O)Nc2cccc3ccccc23)cc1OC`, the Potency is reported as “inactive”. For `COc1cc(/C=C/C(=O)Nc2nnc(CC(C)(C)C)s2)cc(OC)c1OC`, the Potency was “inactive”. For `CC(NC(C(=O)c1ccccc1)c1ccccc1)c1ccccc1` (configuration not stated), the Potency was “inactive”. In the case of `COc1ccc(Nc2nc3ccccc3n3cnnc23)cc1`, the Potency is reported as inconclusive: 25.1 µM [cytotoxic, single point]. In the case of `CN(C)/C=C/C(=O)c1ccc(C(F)(F)F)cc1F`, the Potency is reported as “inactive”. In the case of `Oc1ccccc1CN(Cc1ccco1)CC(O)COCc1ccc(Cl)cc1` (configuration not stated), the Potency is reported as inconclusive: 29.1 µM [cytotoxic, single point]. In the case of `COC(=O)C1=C(Cn2cnc3ccccc32)NC(=O)NC1c1cc(C)ccc1C` (configuration not stated), the Potency is reported as “inactive”. In the case of `O=C(Nc1ccncc1)c1c(Cl)cccc1Cl`, the Potency is reported as inconclusive: 32.6 µM [cytotoxic, single point]. With `Cc1ccc(-c2cn(-c3ccccc3)c3[n+]2CCCS3)cc1` the Potency was inconclusive: 16.4 µM [cytotoxic, partial curve] and inconclusive: 10.3 µM [cytotoxic, partial curve]. In the case of `O=C(CN1CCCC1)Nc1ccc(-c2nc3cc(NC(=O)CN4CCCC4)ccc3o2)cc1`, the Potency is reported as inconclusive: 6.51 µM [cytotoxic, partial curve]. With `CCOc1ccc(NC(=O)C2CCCN(S(C)(=O)=O)C2)cc1` (configuration not stated) the Potency was “inactive”. In the case of `CC(C)(C)OC(=O)NCCCC[C@H](NC(=O)c1[nH]cnc1C(=O)Nc1ccc(Cl)cc1)C(=O)OC(C)(C)C`, the Potency is reported as inconclusive: 20.6 µM [cytotoxic, single point]. In the case of `COc1cccc(/C=N/NC(=O)c2ccc(-n3cnnn3)cc2)c1`, the Potency is reported as inconclusive: 32.6 µM [cytotoxic, single point]. For `Cc1cccnc1NC1CCCCC1`, the Potency was “inactive”. In the case of `O=C(Nc1ccc(-c2csc(Nc3ccc(Cl)cc3)n2)cc1)c1cccc(C(F)(F)F)c1`, the Potency is reported as inconclusive: 23.1 µM [cytotoxic, single point]. With `Cc1ccccc1/C=C/C(=O)c1ccc([N+](=O)[O-])o1` the activity, negative = less viability was inconclusive: -29.6% [cytotoxic]. For `O=C(NC1CCCCNC1=O)c1ccco1` (configuration not stated), the Potency was “inactive”. For `O=C(NCc1cccc(C(F)(F)F)c1)c1cc(-c2ccccc2)nn1CC1CC(c2cccnc2)=NO1` (configuration not stated), the Potency was inconclusive: 29.1 µM [cytotoxic, single point]. With `COc1ccccc1N1CCN(C(=O)c2ccc3ncsc3c2)CC1` the Potency was active: 11.6 µM. In the case of `CC1=C(C)C(=O)N(CCC(=O)O)C1=O`, the Potency is reported as inconclusive: 29.1 µM [rising, single point]. In the case of `O=C(Nc1ccc(Cl)cc1)N(Cc1cccs1)Cc1cccs1`, the Potency is reported as inconclusive: 16.4 µM [cytotoxic, single point]. With `CCN(c1ccccc1)S(=O)(=O)c1cccc(C(=O)N2CCN(S(=O)(=O)c3ccccc3)CC2)c1` the Potency was “inactive”. For `c1ccc(CN2CCC(Nc3nc(-c4cccnc4)nc4ccccc34)CC2)cc1`, the Potency was inconclusive: 23.1 µM [cytotoxic, single point]. With `CC(Oc1ccccc1F)C(=O)NNC(=O)c1cc2ccccc2o1` (configuration not stated) the Potency was “inactive”. With `O=C1/C(=C/c2ccc(F)cc2)CCC1C1CCCC1` (configuration not stated) the Potency was “inactive”. In the case of `C#CC(=O)N(c1ccc(OC)cc1OC)C(C(=O)NC1CCCC1)c1cccs1` (configuration not stated), the Potency is reported as active: 0.92 µM. In the case of `Cc1cc(C)cc(NC(=O)C2C3C=CC4(O3)C2C(=O)N(CCCN(C)C)C4C(=O)NC2CCCC(C)C2C)c1` (configuration not stated), the activity, negative = less viability is reported as inconclusive: -30.8% [cytotoxic]. For `O=C1C(Cl)=C(Nc2ccc(O)cc2)C(=O)c2ccccc21`, the Potency was active: 6.51 µM. For `CCOc1ccccc1N1CCN(C(=O)c2cc3ccccc3cc2OC)CC1`, the Potency was inconclusive: 7.31 µM [cytotoxic, partial curve]. For `CSc1ccc(OC2(C)CCN(Cc3ccccc3)C2)cc1` (configuration not stated), the Potency was inconclusive: 29.1 µM [cytotoxic, single point]. With `Nc1ccc(C(=O)N/N=C\c2cc(N=Nc3cccc4ccccc34)ccc2O)cc1` the Potency was inconclusive: 7.31 µM [cytotoxic, partial curve]. With `Cc1ccccc1-c1nnc(SCCOc2ccc3c(C)cc(=O)oc3c2)o1` the Potency was “inactive”. With `CCCN1C(=O)S/C(=C\c2ccc(N3CCOCC3)o2)C1=O` the Potency was inconclusive: 29.1 µM [cytotoxic, single point]. With `COc1ccc(Nc2oc(COc3ccc(Cl)cc3)nc2C#N)cc1` the Potency was inconclusive: 18.4 µM [cytotoxic, single point]. In the case of `O=C(NN=Cc1cccc(O)c1O)c1ccccc1`, the Potency is reported as inconclusive: 2.31 µM [cytotoxic, partial curve, poor fit]. With `CN1CCN(C(=O)CN(C)S(=O)(=O)c2ccc(F)cc2)CC1` the Potency was “inactive”. With `CC1=NN(c2ccccc2)C(=O)C1C=Nc1ccccc1O` (configuration not stated) the Potency was inconclusive: 14.6 µM [cytotoxic, single point]. With `CC(C)Cc1ccc(S(=O)(=O)Nc2cccnc2)cc1` the Potency was inconclusive: 18.4 µM [cytotoxic, single point]. In the case of `COc1ccc(C(=O)NCC(O)CN2CCOCC2)cc1[N+](=O)[O-]` (configuration not stated), the Potency is reported as “inactive”.
